# Assay results published in PubChem BioAssay AID1508624 (National Center for Advancing Translational Sciences (NCATS), 2021).
# Hit rate of the full screen: of about 48,000 compounds, about 120 (0.25%) were called active. Another 4% or so got no clear call; they are omitted. Calls come from the whole dose curve; as a rule, active = well fitted activation curve with a large enough effect; inconclusive = small, poorly fitted or top-dose-only effect, or another doubt; inactive = no such curve, though single readings can be large or run the other way. Some of the results follow.
# Assay: Primary qHTS for Identification of Small Molecule Activators of Huntingtin-Antisense Promoter Activity; note: nearly all actives have a fitted effect of over 55% in size
# Conditions: HEK293 HTT-AS promoter firefly luciferase reporter, 24 h; series mostly up to 57.5 µM; activity change, positive = activation: at the top concentration
# In short: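 Firefly luciferase readout (Dual-Glo, 10 min RT) after 24 h, 37 °C compound exposure (final up to 57.5 uM) of HEK293 reporter cells cultured 24 h beforehand; PTC124 at 50 uM final as control inhibitor; activity scaled vehicle 0%, zero RLU -100%.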
row,Structure (SMILES),"activity change, positive = activation"
1,CCOC(=O)c1c(NC(=O)c2ccc(OC)cc2)sc2c1CCCCC2,"inactive: 17.6% [at 11.5 µM, percent change from vehicle, -100% = no light]"
2,O=C(COc1ccccc1)Nc1ccc2nc(SCC(=O)N3CCOCC3)sc2c1,inactive: -8.57%
3,COc1ccc(-c2cc3c(C)nc(N)nc3n(C3CCC(OCCO)CC3)c2=O)cn1 (configuration not stated),inactive: -28.7%
4,Cc1ccc(NC(=O)c2cnn3c2NC(c2ccccc2)=CC3c2ccccc2)cc1 (configuration not stated),inactive: -13.3%
5,CCCn1c2ccccc2c2nnc(SCC(=O)Nc3cccc(C(C)=O)c3)nc21,inactive: -27.5%
6,CCN(Cc1ccccc1)C(=O)c1cnn(-c2ccc(F)cc2)c1-n1cccc1,inactive: -30.7%
7,CCC(Sc1nnc(C)n2c1cc1occc12)C(=O)Nc1ccccc1OC (configuration not stated),inactive: -18.3%
8,COc1ccccc1OC(C)C(=O)Nc1cccc(-c2nc3ccccc3o2)c1 (configuration not stated),inactive: 7.81%
9,CC(=O)c1ccc(NC(=O)Cn2nc(N3CCN(c4ccccc4)CC3)ccc2=O)cc1,inactive: -12.6%
10,CC(=O)c1sc(N2C(=O)c3oc4ccccc4c(=O)c3C2c2ccc(C)cc2)nc1C (configuration not stated),"inactive: -4.97% [at 11.5 µM, percent change from vehicle, -100% = no light]"
11,CCCSc1nc2c([nH]c3ccccc32)c(=O)n1C,inactive: -8.71%
12,O=C(NCc1cccnc1)c1nn(-c2ccc(F)cc2)nc1CO,inactive: -21.5%
13,COc1ccccc1CNC(=O)CSC1=Nc2ccccc2N=C(c2ccc(F)cc2)C1,inactive: -33.3%
14,CCc1ccc(NS(=O)(=O)c2ccc3[nH]cc(C(=O)NCCCOC(C)C)c(=O)c3c2)cc1,inactive: -22.4%
15,Cc1ccc(Cl)cc1N1CCN(S(=O)(=O)c2ccc3c(c2)CCN3C(=O)C2CCC2)CC1,inactive: -8.42%
16,Cc1coc2c1C(=O)C(=O)c1c-2ccc2c(C)cccc12,inactive: -22.5%
17,CC(C)c1nc2ccc(C(=O)Nc3ccccc3F)cc2o1,inactive: -37.9%
18,COc1ccc(NC(=O)CCCn2nc(C)c3sc4ccccc4c3c2=O)cc1,inactive: -3.35%
19,COc1ccc(S(=O)(=O)NCCSc2nnnn2-c2ccccc2)cc1,inactive: -14.9%
20,COc1ccc(-c2nc(CSCC(=O)N3CCN(c4ccc(F)cc4)CC3)c(C)o2)cc1,inactive: -51%
21,CCN(Cc1ccccc1)S(=O)(=O)c1ccc(-c2coc(C)n2)cc1,inactive: -26.9%
22,Cc1cc(-n2c(C)nc3ccccc3c2=O)ccc1NC(=O)C(F)(F)F,inactive: -6.52%
23,O=C(Cn1ncc2c3ccccc3n(Cc3ccc(F)cc3)c2c1=O)NCc1cccs1,inactive: -4.39%
24,CC(CNC(=O)c1ccc2nc(Cc3ccccc3)oc2c1)c1ccccc1 (configuration not stated),inactive: -14.9%

row,Structure (SMILES),"activity change, positive = activation"
1,Cc1cccc(Cc2c(C)nc3c(-c4ccccc4)c(C)[nH]n3c2=O)c1,inactive: -58.2%
2,CC1CCCN(S(=O)(=O)c2ccc3c(c2)CCN3C(=O)CCC(=O)O)C1 (configuration not stated),inactive: -5.26%
3,COc1ccc(NS(=O)(=O)c2ccc3nc(-c4ccccc4)[nH]c3c2)cc1,inactive: -34.5%
4,Cc1cc(C(=O)Nc2ccc(-n3c(C)nc4ccccc4c3=O)cc2)ccc1[N+](=O)[O-],inactive: -12.6%
5,O=C(O)c1ccccc1-c1ccc(C(F)(F)F)cc1,inactive: -2.83%
6,O=C(CSc1nnc(-c2ccc(F)cc2)o1)N1CCCc2ccccc21,inactive: -10.5%
7,Cc1ccc(CSc2nnc3[nH]c(=O)cc(-c4ccccc4)n23)cc1,inactive: -1.23%
8,O=C(CCC1N=C2c3ccccc3N=C(SCc3ccc(Cl)cc3)N2C1=O)N1CCN(c2ccccc2)CC1 (configuration not stated),inactive: -0.922%
9,COc1ccc(N2CCN(CCCNC(=O)Nc3ccccc3)CC2)cc1,inactive: 0.91%
10,COC(=O)c1sccc1S(=O)(=O)N(CC(=O)NCc1ccc(C)cc1)c1ccc(C)cc1,inactive: -17.9%
11,Cc1ccccc1-n1c(Cn2nc(-c3cccc(O)c3)c3c(N)ncnc32)nc2cccc(C)c2c1=O,inactive: -42%
12,Fc1ccc(-c2nc(Nc3cccc(C(F)(F)F)c3)nc3c2COc2ccccc2-3)cc1,inactive: -14.5%
13,COc1cc(Nc2nc3ccccc3nc2NS(=O)(=O)c2ccc(NC(=O)c3ccc(C)c(OC)c3)cc2)cc(OC)c1,inactive: -26.5%
14,CCn1cc(C(=O)NCc2ccc(Cl)cc2)c(=O)c2cc(S(=O)(=O)N(C)C3CCCCC3)ccc21,inactive: -29%
15,CCN(C(=O)Cn1c(=O)n(-c2ccccc2)c(=O)c2ccc(C(=O)NCc3ccc4c(c3)OCO4)cc21)c1cccc(C)c1,inactive: -11.1%
16,Cc1c(Cl)cccc1NS(=O)(=O)c1ccc(-c2cnc(C3CC3)o2)cc1,inactive: -42.1%
17,Cc1cc(C)cc(OCC(=O)Nc2c(C(=O)c3ccccc3)oc3ccccc23)c1,inactive: -4.18%
18,O=C(CCn1c(=O)c2cccn2c2cccnc21)Nc1ccccc1C(F)(F)F,inactive: -7.86%
19,CCC(=O)N1c2ccccc2CC1C(=O)NCc1cc(OC)ccc1OC (configuration not stated),inactive: -2.89%
20,CC(C)c1ccc(NC(=O)c2cc(S(=O)(=O)N(C)C3CCCCC3)ccc2F)cc1,inactive: -24.1%
21,CCCCn1cnc2cc(NCc3ccc(OCC)cc3)ccc21,inactive: 3.51%
22,CCOc1ccc(NC(=O)c2cc(S(=O)(=O)N3CCc4ccccc43)ccc2F)cc1,inactive: -36.1%
23,CCCCCCCCCCCCSCCOCCO,inactive: -6.31%
